The whole screen tested about 43,000 compounds, of which about 200 (0.47%) were called active. The inconclusive results got no clear call from the source; some entries with a clear call stand among them for comparison. Calls follow the shape of the dose curve; as a rule, active = well fitted cell-killing curve with a large enough effect; inconclusive = small, poorly fitted or top-dose-only effect, or effect the other way; inactive = flat fitted curve, though single readings scatter. A potency beside an inconclusive call is a rough fit, not a confirmed value.
test: Cell viability qHTS assay in S16 Pmp22-F2sN cells; conditions: S16 Pmp22-F2sN Schwann cells viability, CellTiter-Glo, 24 h; activity change, negative = cytotoxicity: at 57.5 µM (top of the series); also: nearly all actives have a fitted effect of over 65% in size
Procedure, shortened: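 Used to flag compounds lowering reporter output through toxicity, this quantitative HTS measures ATP-based CellTiter-Glo luminescence in S16 Pmp22-F2sN Schwann cells after 24 h compound exposure at 37C.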
% is scaled to controls: 0 for no effect and ±100 for the full control effect; potency is read from the fitted curve at half-maximal effect; tags tell the direction and shape of the fitted curve.

Structure (SMILES)	activity change, negative = cytotoxicity	Potency
Cc1ccc(NC(=O)CN2C(=O)CCc3cc(S(=O)(=O)N4CCOCC4)ccc32)cc1N(C)C	inactive: 0.782%	–
O=C(Nc1ccc(-c2nc3cc(NC(=O)c4ccccc4Cl)ccc3o2)cc1)c1ccccc1Cl	–	inconclusive: 39.8 µM [cytotoxic, single point]
COc1ccc(Nc2c3c(nc4ccc(NC(=O)/C=C/c5cc(OC)c(OC)c(OC)c5)cc24)CCCC3)cc1OC	–	active: 11.2 µM
Cc1cc(F)ccc1NC(=O)c1csc2c1CCC(C)C2 (stereo not given)	inactive: 0.131%	–
CCc1ccc(NC(=O)CSc2nc3nc(C)cc(C)n3n2)cc1	–	inconclusive: 22.4 µM [cytotoxic, partial curve, poor fit]
COc1ccc(CCNC(=O)c2ccc3c(c2)CCN3S(=O)(=O)c2ccccc2)cc1	–	inconclusive: 35.5 µM [cytotoxic, single point]
O=C(Nc1ccc(Cl)cc1)c1cnn2c1NC(c1ccccc1)=CC2c1ccccc1 (stereo not given)	–	inconclusive: 39.8 µM [cytotoxic, single point]
COc1ccc(-c2cc(C)no2)cc1S(=O)(=O)N1CCN(c2cccc(C)c2)C(C)C1 (stereo not given)	–	inconclusive: 25.1 µM [cytotoxic, partial curve, poor fit]
CCN(CC)c1cc(C)c2cc(NC(=O)c3ccc(OC)c(OC)c3)ccc2n1	–	inconclusive: 39.8 µM [cytotoxic, single point]
O=C(Nc1cccc(F)c1)c1ccc2oc(=O)n(Cc3ccccc3)c2c1	–	inconclusive: 25.1 µM [cytotoxic, single point]
CCC(CC)C(=O)Nc1nnc(S(=O)(=O)N(C)c2cc(C)cc(C)c2)s1	–	inconclusive: 25.1 µM [cytotoxic, single point]
Cc1cccc(N(CC(=O)NCCc2ccccc2)S(=O)(=O)c2ccccc2)c1C	–	inconclusive: 39.8 µM [cytotoxic, single point]
Cc1ccc(-c2csc(-c3c(N)c(C(=O)c4ccc5c(c4)OCO5)n4ccccc34)n2)cc1C	–	inconclusive: 6.31 µM [cytotoxic, single point]
COc1ccc(NC(=O)CC2Oc3ccc(C)cc3NC2=O)cc1Cl (stereo not given)	–	inconclusive: 1.26 µM [cytotoxic, full curve, poor fit]
COc1ccc(NC(=O)c2c(NCc3ccc(C)o3)sc3c2CCCCC3)c(OC)c1	inactive: -25%	–
COc1ccc(-n2c(/C=C/c3cccc4ccccc34)nc3ccccc3c2=O)cc1OC	–	inconclusive: 17.8 µM [cytotoxic, partial curve]
COc1ccc(Cn2c(C(=O)O)c(CNCc3ccc(OC)cc3OC)c3ccc(C)cc32)cc1	–	inconclusive: 8.91 µM [cytotoxic, full curve]
CN(C(=O)CSc1nc2ccc(NC(=O)c3cccc(F)c3)cc2s1)c1ccccc1	–	inconclusive: 39.8 µM [cytotoxic, single point]
COc1cccc(CNC(=O)N2CCc3c(sc4c3CCCC4)C2c2ccc(F)cc2)c1 (stereo not given)	–	inconclusive: 10 µM [cytotoxic, partial curve]
Cc1cc(Nc2cccc(C(F)(F)F)c2)nc2ccc(NC(=O)Cc3ccc(Cl)cc3)cc12	–	inconclusive: 12.6 µM [rising, partial curve, poor fit]

Structure (SMILES)	activity change, negative = cytotoxicity	Potency
COc1ccc(Nc2cc(C)c3cc(NC(=O)c4ccccc4Cl)ccc3n2)cc1	–	inconclusive: 39.8 µM [cytotoxic, single point]
Cc1ccc2nc3c(cc(C#N)c(=O)n3-c3nnc(SCc4ccc(F)cc4)s3)c(=O)n2c1	–	inconclusive: 39.8 µM [cytotoxic, single point]
CCCn1c2ccccc2c2cnn(CC(=O)NCC3CCN(Cc4ccc(C)cc4)CC3)c(=O)c21	–	inconclusive: 31.6 µM [cytotoxic, single point]
CCOc1ccccc1NC(=O)Cn1c(=O)n(CC(=O)NCc2ccccc2Cl)c(=O)c2sccc21	–	active: 28.2 µM
Cc1ccc(Sc2ccc(N3CCCC(C(=O)Nc4ccc(F)c(Cl)c4)C3)nn2)cc1 (stereo not given)	inactive: 10.7%	–
CC(C)Cn1nc(NC(=O)c2cccc(Cl)c2)c2cc3ccccc3nc21	–	inconclusive: 22.4 µM [cytotoxic, partial curve, poor fit]
CCOc1ccccc1NC(=O)Cn1nnc(C(=O)NCc2cccs2)c1N	–	inconclusive: 0.282 µM [cytotoxic, full curve, poor fit]
Cc1ccccc1Nc1nn2c(=O)c3ccc(C(=O)NCC(C)c4ccccc4)cc3nc2s1 (stereo not given)	–	inconclusive: 39.8 µM [cytotoxic, single point]
CCc1c(-c2ccccc2)nc2ccccc2c1C(=O)NC(C)c1ccccc1 (stereo not given)	–	inconclusive: 39.8 µM [cytotoxic, single point]
CCCN(c1ccccc1F)S(=O)(=O)c1ccc2c(c1)C(C)(C)C(=O)N2C	–	inconclusive: 39.8 µM [cytotoxic, single point]
Cc1ccc(NC(=O)CSc2nc3ccccc3c3nc(CCn4cncc4C)nn23)cc1F	–	inconclusive: 35.5 µM [cytotoxic, partial curve, poor fit]
Cc1cc(OC(C)C(=O)N(Cc2ccco2)Cc2ccccc2F)cc(C)c1Cl (stereo not given)	–	inconclusive: 39.8 µM [cytotoxic, partial curve, poor fit]
Cc1ccc(CCNC(=O)C2CCN(c3nnc(C)c4c(C)n(-c5ccccc5)nc34)CC2)cc1	inactive: -0.602%	–
Cc1ccc(C)c(N2CCN(CCCNC(=O)C3COc4ccccc4C3)CC2)c1 (stereo not given)	–	inconclusive: 39.8 µM [cytotoxic, single point]
CCC(CC)C(=O)Nc1ccc(OCc2cc(=O)n3ccsc3n2)cc1	–	inconclusive: 0.891 µM [rising, partial curve, poor fit]
CC1CCN(c2ccc(NC(=O)c3cccc(Cl)c3)cc2C(=O)O)CC1	inactive: 10.1%	–
Cc1ccc(-c2cc(C(=O)NC(C)c3ccccc3)c3ccccc3n2)cc1C (stereo not given)	inactive: -1.73%	–
O=C(CSc1nc(-c2ccc(F)cc2)cc(C(F)(F)F)n1)NCc1ccccc1	–	inconclusive: 39.8 µM [rising, partial curve, poor fit]
CCOC(=O)c1c(-c2ccccc2)oc2ccc(NS(=O)(=O)c3ccc(OC)cc3)cc12	–	inconclusive: 25.1 µM [cytotoxic, single point]
COc1ccccc1Nc1nn2c(=O)c3ccc(C(=O)N4CCC(C)CC4)cc3nc2s1	inactive: 5.46%	–

Structure (SMILES)	activity change, negative = cytotoxicity	Potency
O=C(c1nc(-c2ccc(Cl)cc2)n2c1CCCCC2)N1CCN(c2ccccc2F)CC1	–	inconclusive: 39.8 µM [cytotoxic, single point]
Cc1ccc(CS(=O)(=O)c2cn(CC(=O)N(C)c3ccccc3)c3ccccc23)cc1	inactive: -29%	–
Cc1ccc(C(Nc2ccccn2)c2ccc3cccnc3c2O)cc1 (stereo not given)	–	active: 31.6 µM
COc1cc(Cl)c(NS(=O)(=O)c2ccc3c(c2)CC(C)N3C(=O)C2CCC2)c(OC)c1 (stereo not given)	–	inconclusive: 8.91 µM [cytotoxic, partial curve]
O=C(CCn1cnc2onc(-c3ccc(F)cc3)c2c1=O)N1CCN(c2ccc(F)cc2)CC1	–	inconclusive: 31.6 µM [cytotoxic, single point]
Cc1c(Cl)cccc1-n1ncc(C(=O)N2CCc3ccccc3C2)c1C1CCN(C(=O)OC(C)(C)C)CC1	–	inconclusive: 39.8 µM [cytotoxic, partial curve, poor fit]
CCN(Cc1ccccc1)Cc1c(O)ccc2c(=O)c(-c3ccccc3OC)c(C(F)(F)F)oc12	–	inconclusive: 39.8 µM [cytotoxic, single point]
CCc1ccc(-n2c(SC(CC)C(=O)N(CC)CC)nc3n[nH]c(C)c3c2=N)cc1 (stereo not given)	–	inconclusive: 39.8 µM [cytotoxic, single point]
CCN1CCC(N(Cc2ccc3c(c2)OCO3)C(=O)Nc2cc(Cl)ccc2C(=O)OC)CC1	–	inconclusive: 39.8 µM [cytotoxic, single point]
Cc1cccc(NC(=O)C2CCCN(S(=O)(=O)c3cccc4nonc34)C2)c1C (stereo not given)	–	inconclusive: 39.8 µM [cytotoxic, partial curve, poor fit]
Cc1cccc(N2CCN(C(=O)c3cn(C4CCCCC4)c(=O)c4c3c3ccccc3n4C)CC2)c1C	inactive: -1.64%	–
CCCOC(=O)c1c(C)oc2c1cc(NS(=O)(=O)c1ccc(OCC)cc1)c1ccccc12	inactive: 1.41%	–
CCOc1cc(C2C(C(=O)OC)=C(C)NC3=C2C(=O)c2ccccc23)c(Br)cc1OC (stereo not given)	–	inconclusive: 11.2 µM [cytotoxic, partial curve, poor fit]
Fc1ccccc1Oc1ncnc2c1oc1ccccc12	–	inconclusive: 31.6 µM [cytotoxic, single point]
CCCCSc1nnc2n(-c3cccc(C)c3)c(=O)c3c4c(sc3n12)CCCC4	–	inconclusive: 22.4 µM [cytotoxic, single point]
Cc1cccc(N2CCN(C(=O)c3ccc4c(c3)N(Cc3ccccc3F)C(=O)c3ccccc3S4=O)CC2C)c1 (stereo not given)	inactive: 10.9%	–
CCCCC(CC)CNC(=O)CCCc1nnc2n(CCC)c(=O)c3sccc3n12 (stereo not given)	–	inconclusive: 7.08 µM [rising, single point]
CCCCNS(=O)(=O)c1ccc2nc(-c3cccnc3)cc(C(=O)NCCC)c2c1	–	inconclusive: 28.2 µM [cytotoxic, partial curve, poor fit]
Cc1ccc(CN(Cc2ccco2)C(=O)COc2c(C)cc(C)cc2C)cc1	–	inconclusive: 25.1 µM [cytotoxic, single point]
COCCNC(=O)CSc1c2c(nc3cc(Cl)ccc13)CCCC2	–	inconclusive: 39.8 µM [cytotoxic, single point]

From PubChem BioAssay AID1508642 (National Center for Advancing Translational Sciences (NCATS), 2021)
